From the supplement of paper PMC12632987
In all, about 4,500 sequences were measured (“median log2 fold change of GCK-ALFA target abundance (FLAG IP / Myc IP barcode read proportion)”: median about 0.078, lowest 2% from about -0.6 on). Some of the results follow.

B1: GBRAP_39_5697 (protein)
chain: EREEEAEDTFSYLEAIGAKYQVEEKISLEEARERTRELAERFIKEHPEIAEVLKELLELAEKAGDLAILALLGLLLRAEEGTPLEEIKKDAELLIEYLKS
B2: GBRAP_14_3766 (protein)
chain: RAEIHAIIRDTGARIVALLAEIDPAHAAEFAAAIDAVVAETIAAIDATGDAEAAAEAGEDRLVARVREISADLPAERRAQLEAVVRVEFGEAILEIDEAL
B3: GBRAP_160_4372 (protein)
chain: SPELKKLAKEIEELKKEFEEEAKDLSPEEVRTLAIGVLSEVAALVFENEAVPEEVEDEIFEIIDEAIEKLRASTDASPEEIVAITKEALDKIIELVKKAA
B4: GBRAP_184_5159 (protein)
chain: KVLERTLKVKNLEEAKEKLEEIRAEAKETKADLYVFLELEELDKEILETILTGLGEIKAEGYAPNVVVHLEAELNDEEIDFVLSLADAAGVRVVLAIPDE
B5: GBRAP_195_5409 (protein)
chain: RKVVGRVLRIGADDTPEDILAKIEAIVAEVKAESNGDLVLVVARHPSVPEETVLAAVKEAQARFPDIKITVEVFDDDSLPLSTLEAFARMEVANLEEELE
B6: GBRAP_128_3550 (protein)
chain: SLEEARKEAEKVVEEIKNSDVEKAREIMRKFAEWLKTKSLEEVEAALEVVEEKAKELDAEKLEAVADVLLEQRDLFSPEVQNLIADTAVELLNEAEEKEE
B7: GBRAP_160_4028 (protein)
chain: SEKLEKLKAFAEEEFEEAKELIKGQSAEQVAAIVAVTVGRIILEAEELGIDDDEMLDRIDEIGDEAVETILENPELSEEERRELIEEAREEVLEAIEESE
B8: GBRAP_128_3361 (protein)
chain: LDEELLKEAKKLVEAMKTADVETTRKLTEKVIELMKKADAETAEAIAEILKEALPELTAEKLDAIADAIRKARPEADPEKANLLADVEVEALNEAVEKEE
B9: GBRAP_125_3069 (protein)
chain: PSDEELADLATLARALGFSESEVAEAVEIARASSLRQTLVAIALAEDAEELADAIERLTEEEAAELLRRLAAELAAHPDLTPEEVLARALALARELIAAR
B10: GBRAP_11_2686 (protein)
chain: KKEKLKEGAELAKEAAAVVKELLEKGTDDEELLKKLKELLEKLKELTEKYGDPDLKKLAKIAVELFEEALKDKENKEKYMKELLAALEVLAGDYLLLIEE
B11: GBRAP_11_2605 (protein)
chain: KKETLKKAAELAEELAKAVEELLKEGVDNEELRKKIKELLEKLKKLVEEELDESDKKDVEVLEELWKKAEEDPENREEYLEQLRAAALVLSGNFLLEIEE
B12: GBRAP_52_6045 (protein)
chain: MRERMRRLARELVALVKAGDREGARELAKRIAEELDDEELRLLAEELAALAREGDEEEREAVLEAAEILAEELERAGKDPALADEIEARVAAAAYEASLK
B13: GBRAP_125_3060 (protein)
chain: SKEEAIANLARIARALGYSEDDIAELERLARASSIKNTMIAIALAEGDEELADALARLSEEEVIAVLARAAAELAANPDLTPEEVRALLLRLAREALAAA
B14: GBRAP_160_4774 (protein)
chain: SEKKEELIKEIEEAAKEIKEAIDTESPEEALTVVRGETGDIIMEVFELGFDNDELEDKVAEIMDKLVKDMEEAKDKSPEEKKAIVEEYKKEAIETIEKLS
B15: GBRAP_160_3992 (protein)
chain: SEKIEELKEEFKEIFEETLALARGESPEERLAVVRVMAGEVILLAEESGVLSDEAVEKIAEVMDELVATVEANPDMSDEELAALLEKALEKIFKIIDEES
B16: GBRAP_74_6540 (protein)
chain: SEEVLEEIKKLIEEGKFLEAAELVIKVIKEEDTETALEALRIFLKGVIENKDKLTLEEAEKIGDVIAEAFTLIPDEEFSDELYDLINKTLEIIIEIEKKS
B17: GBRAP_11_2887 (protein)
chain: KKEKLKELAEIAEEIAEKIEELLEEGVDNEELLKEIEELLKKLAELTKKYADKGSQKLTEIAAELFKEALENPEKREEYLKELLAAVRVLEGDYLLEAEE
B18: GBRAP_64_6488 (protein)
chain: EEEIEKLLKEALELVEKLLELVKDLSEELQKKVKKVLELLKKAEEASLEERLDLVVEAAKLMNEILKDPELTEEQKEQAAEALDALSELAQELFEAEEEK
B19: GBRAP_52_6099 (protein)
chain: SEERLREYAERLVEAAVAGDVERATELLLEAVASLSDEEVLEMLRLAAELMSKLPPEELERATDVMLEALDRVAEATGKEELMDLAEAEVAAIAYEALQK
B20: GBRAP_52_6199 (protein)
chain: MEERMRELAERVFEAVKAGRLEEARELLRELAEERDEEAIRLFTEELARLALTVPEEDWDAVFEAAELFEEVAEEEGVPEELADEAIARVAAALYKREQA
B21: GBRAP_160_4352 (protein)
chain: SETVERLIEEIRRVAEEVKEEIDDLSVEEVRIIAAGLFGEVFMEAAEDPRISDELEDVVIDGRDRVLEFLKANENASVEEIKEGIERIVEETIRRIKEIA
B22: GBRAP_95_7040 (protein)
chain: DDLVLAVESLAEVVEGLVELGDEEAAKKAAKRLLEAIKEAKPDKVKIELSKETAKLIIEVAKKTLSKEEAIEILEKLAEFATNEEVKELFLKAAEELKKE
B23: GBRAP_137_3635 (protein)
chain: AKVTIETETIGDVVEITVTFDDPEKAEEVAEMLLDIAHEKGALAVSIEIKENGVLEAVIWVPKEKAEELIKAIVKALTEKFGADVTIINKDTGEVKEIKA
B24: GBRAP_160_4487 (protein)
chain: MEKVEEAKREVEELIELMVESIKESPPSQRLPIARAYAGDIAQTVYEHGLVDDEQFEELLELVEELAEEIVRASEEGPEAMEEAAERLREEVARFIEEVS
B25: GBRAP_184_5113 (protein)
chain: KTLEFEIKVENVEEAKKKLEEAVKKAVEEKANLLVIVEVKNATVELAKAIVEKLAEAKKAGIKNVTALLESDNITEEVIDAAIEKAKELGIDNLVIATKE
B26: GBRAP_80_6823 (protein)
chain: AEERLKEVLEELKEVDPEIAEIVKELIEIARELGVSLEDLARAAEAVLELAKLDKEKAREIVKEALEELKKAKERGDLAEATAIVYDLESDALLAAEELE
B27: GBRAP_166_4918 (protein)
chain: SMEEIVEEAEERLREVIREERADPRMTPEQITVAMADELAEILDEVEDEETKMAIVERGLKIAKEEGLDPERLAKLTAGLYGFSDEEEEEIEKIVKEILK
B28: GBRAP_52_6328 (protein)
chain: SEEKVRELAEKLVAAIEAGDEEKAKELAEKAVKELSSEEILELARIVAEKVATKDDATKERAAEVFDYLAELVIEEHGDEKTAAEILGIYARTLYAAEQA
B29: GBRAP_53_6418 (protein)
chain: MEEKKKKLKEEILKLAKEAGKADEEEQLKLTKEIIKLLKEAKEAGMSDEELTKLAKEVAKLLKEAGASDSALVELAKGLAELGLEEATAEVVELIVEDLE

target: GABARAP, O95166; experiment: median log2 fold change of GCK-ALFA target abundance (FLAG IP / Myc IP barcode read proportion) (log2 ratio); each designed protein is fused to an ALFA-tag nanobody in HEK293 cells to bring the named protein to FLAG-tagged glucokinase (GCK); Myc marks an untargeted standard; higher = target protein stabilised (more abundant); conditions: target protein: 3xFLAG-MCP-GCK-ALFA reporter; HEK293 landing pad (RPLP)
Outline: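 HEK293 landing-pad cells received a recombined binder library fused to the ALFA nanobody and were induced with 2 μg mL^−1 doxycycline, then transfected with a plasmid encoding a FLAG-tagged target and a Myc-tagged standard. Lysates were collected after 48 h for anti-FLAG and anti-Myc immunoprecipitation, and the circular RNA barcodes were reverse transcribed, amplified and sequenced. Target abundance for each binder is the median log2 ratio of FLAG to Myc barcode read proportions. Barcodes had to reach a proportion of at least 10^−7 in both replicates, each binder needed at least 3 barcodes per replicate, a pseudocount of 10^−6 was applied, and the two replicates were pooled.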

Sequence of GABARAP, O95166 (O95166 whole entry, the tested form may be a part): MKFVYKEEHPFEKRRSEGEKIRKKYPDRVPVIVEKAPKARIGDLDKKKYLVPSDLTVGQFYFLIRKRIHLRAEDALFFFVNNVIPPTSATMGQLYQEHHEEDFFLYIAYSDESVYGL

Binder | median log2 fold change
B1 | 0.186
B2 | -0.0243
B3 | -0.0587
B4 | -0.122
B5 | 0.187
B6 | 0.223
B7 | -0.313
B8 | 0.0187
B9 | -0.12
B10 | 0.351
B11 | 0.225
B12 | -0.0201
B13 | -0.055
B14 | -0.0262
B15 | -0.427
B16 | -0.448
B17 | 0.149
B18 | 0.192
B19 | 0.0627
B20 | -0.0996
B21 | 0.126
B22 | 0.24
B23 | -0.022
B24 | -0.0375
B25 | 0.27
B26 | 0.254
B27 | 0.0961
B28 | 0.193
B29 | 0.136
